According to the supplement of paper PMC10126150:
Sequences with one replicate were seen in a single cluster, so their values are uncertain.

System: ATP
Assay: switch fluorescence ratio, 500 uM ATP over buffer (Cy3 cluster intensity, sum of 5 cycles each) (fold (ratio)); higher = stronger signal-on switching upon ATP binding; sequences stand for … in TCGTCGGCAGCGTCAGATGTGTATAAGAGACAGTTTTTTTTTTTTTTTTTTTTTTTTT…TC
Settings: aptamer strand: ATP DNA aptamer (quencher-CACCTGGGGGAGTATTGCGGAGGAAGG + anchor), 100 nM annealed; ATP concentration: 500 uM; one replicate
Outline: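 Values give the fluorescence ratio for each switch-domain sequence, averaged from per-cluster ratios of summed target-cycle to summed buffer-cycle Cy3 intensity. The Cy3-labelled switching-strand clusters sat on a modified Illumina MiSeq flow-cell, were annealed to 100 nM quencher-labelled ATP aptamer, and were imaged in selection buffer, then after 15 min with 500 uM ATP at 22 °C. Five cycles ran with NaOH stripping and re-annealing between them, and clusters outside 100-1000 RFU were excluded.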
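Also: ATP exposure 15 min at 22 °C before imaging.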

Sequence | switch fluorescence ratio
GCAATCTGGA | 1.07
AAAGACTGGG | 1.02
GCGAACTCTT | 1
AGCCGGGGAA | 1.02
ACATCTTGTC | 1.07
ACATGAAAGC | 1.04
ACAGTCTGTA | 1.04
TAAAGTGACG | 1.01
GCTAACGTTT | 1.06
ATTCTGATAC | 1.17
TTCGGACCAC | 1.1
GCCGTTCAGG | 1.01
TCACCACAGG | 1.14
ACAATACGAT | 1.54
AGGTACTGGT | 0.969
CGATTGCGGC | 1.1
AGTGTGAGGG | 0.973
CAGAAGCGTA | 1.13
CCATGTTGGG | 1.05
GGTAGACAAA | 0.995
GATGGGAGAG | 1
CTAACCCAGC | 1.12
TTTGGAACAG | 0.962
GGGAAGCGGG | 1.01
TCCTCGCCTT | 1.79
ACGATAGGCT | 1.04

Sequence | switch fluorescence ratio
ACTTCCGTGT | 1.12
CTGTCGACGG | 0.938
TACGACTGGT | 1.02
GGCGTCCAAA | 1.01
CACTCCTCAC | 1.63
ATATTAGCGA | 1.04
TTAAGACGC | 1.04
GATTAGGACC | 0.978
AGGTCGACCG | 0.982
GTAGGAAAAT | 1.03
TTTAGTAGTA | 0.959
ATCCCCTGTG | 1.83
CGACGATGGA | 1.08
TCTTATCATG | 1.02
TATGACTAGT | 0.987
TCCTGCTTGT | 0.984
CCTTGGATAG | 1.07
GACGCCAGAT | 1.39
GGGTTTACTC | 1.03
AATCAGCGCT | 1.01
GTCATGTCGT | 1.01
CAATAGCCTC | 1.03
AGAAGAGAAA | 1
TCTTAATGTC | 0.985
ACTCTTCGGT | 1.02
CTTGGTGACC | 1.03

Sequence | switch fluorescence ratio
CGACTGTGTT | 1.02
TAATAGCT | 1.05
AGGCAGCG | 1.03
CAATTTGAGC | 1.28
TAGGGGACGA | 1
ATATGGAAGA | 1.01
CAGATGACGC | 1.06
AGTGTCAACC | 0.942
GGCTGGGGGC | 1.03
TGAGTTCCGA | 1.03
TGACGTAAGA | 1.2
TAGGTTCATA | 0.979
GCTAGCAAAG | 0.981
CCTTGGCAAG | 3.72
TCTATCTACG | 1.05
ACTGCCCGTC | 1.1
CCTATAGAGG | 1.01
CTCAATATTG | 1
CATCAGCGCC | 1.4
CATGATGGGT | 0.955
TTCGTTTCAA | 1.02
CAGTAGCGCA | 1.17
TATGCGCGGC | 0.948
AATTGCAGTG | 1.04
ACCAAAGGGG | 1.06
TCCACAAGGG | 1.17

Sequence | switch fluorescence ratio
TTGGCTAGGG | 1.02
TTAGCTTTCC | 1.48
TTCTGCAAAT | 1.37
CAGCACAATT | 1.05
AGTCTATCGT | 0.99
GTTGGACTGA | 1
TGCCGTTACA | 1
GTTGTGTAGT | 1.02
TGCGAGAAGA | 0.983
TTCGGACAAG | 0.991
CAATAATTAA | 0.988
CCTTCAGGCG | 1.51
GGTACCGGTG | 1.02
GGCGAACTTG | 0.969
AACACTACCA | 1.26
GCACGTCACC | 1.67
TAGGGGTCCG | 1.04
GGGCGGCATG | 1.01
GTTGGCGAGG | 1.02
ATAGTGAAC | 0.985
TAATATGTCA | 0.996
CCATTCCTTT | 0.964
TAGTAGGGTA | 0.988
TCAGACGATG | 0.992
GTTCATAGGC | 1.01
GTAAGGGGCC | 1.01

Sequence | switch fluorescence ratio
TAGCAGAA | 1.6
TTGTGAATTG | 0.966
ATGCAGGTGA | 1.2
GCGTTCAAAA | 1.05
AGTAGTAACC | 1.03
TGGACGGGCG | 1.22
GTCGGCGTAT | 1.07
TTGGTGAATC | 0.979
TGTGATCGTA | 1.01
ATATATAATC | 0.989
TGGCCGGA | 1.05
TAGAGTGCAT | 0.993
TGGAAGGGAT | 0.996
GCGAGTCAGA | 0.997
ATTTTGGG | 0.91
GGGTTTATCG | 0.968
GTGCGAGCTA | 0.971
CTTCACGCAT | 3.72
ACCGGAGACA | 1.19
ACCGAGGCGA | 1.04
GTGACCGCGA | 1.78
TGCTAGGGT | 1.24
CATACACGTA | 1.17
GGGTTCATCT | 0.996
TGGCTATCAG | 1.01
ATGTAACAGT | 1.01

Sequence | switch fluorescence ratio
GTAGGTCCGC | 1.04
TCATCACTTG | 1.03
TTCCCATGAA | 1.02
TGTTCCTGTA | 0.999
AACCCAGCGC | 1.03
CGGTAAGCAG | 0.965
TTAGCGCGTT | 0.999
CCCCAATAG | 3.91
CCAGCCCCAG | 1.48
AATGACAGGA | 1.01
AAGAACGCTG | 0.948
TAATGGTAAC | 1.01
TATTTCACAT | 0.973
TGCTTTATGG | 0.987
TGGATTTGAG | 0.956
AGTTACTCAG | 1.06
GATGCATCCG | 1
CACCCCCGGG | 1.17
CCCCTTGTAC | 1.72
GCCACTGAAG | 1.01
TATAAGCATG | 0.991
GTAGTGTGT | 1
ATATCCCTAC | 1.06
TTTGTGCCTA | 0.961
GCGCCACTT | 1.01
AAATATCGTG | 0.987

Sequence | switch fluorescence ratio
TGTGTCCACA | 1.03
AAGGTATCCA | 1.01
CGAGGGTTAA | 1.08
CTCTTCTATT | 1.03
TACTGGAAC | 1.07
GGCTTATGAC | 1.01
GATACAATTT | 1.09
CTGATACTGT | 0.989
GGCACCCGCT | 1.02
GAAATGGCGG | 1.02
CGCTAGCGCA | 1
TTGCGAGCGG | 1
AAGTCGTACT | 1.03
CAATTAAGCG | 0.984
TAGCCAGGGA | 1.03
GAAAAAAGC | 1.08
ATTTTGCCGA | 0.989
CCGTTTTGGT | 0.926
TGACCTTTTG | 0.988
ACGGGGGTA | 1.01
GTCAGGGTCT | 1.01
GGAATGCTTG | 0.984
AAGGGGCGC | 1.11
TTAGTTCCTC | 1.12
CAGCTCACGA | 1.13
TGGATGTAAA | 0.99

Sequence | switch fluorescence ratio
GGAAATTAGG | 1.01
TACTGACGTA | 1.12
CGCCACCATT | 0.998
ACACGGCCGA | 1.07
AACGCCCCGC | 1.08
CGATCTGGAG | 0.97
TGACGTTGCA | 1.03
ATAGGCTGGA | 1.05
CTTGGTCTGG | 0.98
TCTGTGGAAA | 1.04
AGCCCGCACA | 2.31
GCCTGAATCA | 0.946
CCTGGTCTTT | 1
ATAGGTCTGT | 0.971
CTAGTAATGA | 1.03
TAGCTTCCCC | 1.84
ATCTGATAGT | 1.04
CGCTGCTGGA | 1.05
TGGATCGAT | 0.993
